# Measured values as given in patent publication US20240158515A1, “ANTI-FGFR3 ANTIBODIES AND ANTIGEN-BINDING FRAGMENTS AND METHODS OF USE THEREOF” (Regeneron Pharmaceuticals, Inc., priority 2022, published 2024).
# Tests used:
# [1] = test system: cynomolgus FGFR3b (mfFGFR3b.mmH, REGN3521); experiment: Biacore SPR binding kinetics, monomeric cynomolgus FGFR3b to captured antibodies; conditions: 25° C.
# Experimental: Biacore binding kinetics of anti-FGFR3 antibodies, in an antibody capture format, to monomeric human FGFR3b, cynomolgus FGFR3b, murine FGFR3b, human FGFR3c, and dimeric human FGFR3b ecto domain recombinant proteins at 25° C. were analyzed.
# Equilibrium dissociation constants (KD values) for human FGFR3b expressed with a C-terminal myc-myc-hexahistidine tag (hFGFR3b.mmH, REGN3152) or cynomolgus FGFR3b expressed with a C-terminal myc-myc-hexahistidine tag (mfFGFR3b.mmH, REGN3521), or murine FGFR3b expressed with a C-terminal myc-myc-hexahistidine tag (mFGFR3b.mmH, REGN3215) or human FGFR3c expressed with a C-terminal myc-myc-hexahistidine tag (hFGFR3c.mmH, REGN3155) or human FGFR3b expressed with an C-terminal murine Fc tag (hFGFR3b.mFc, REGN3153) binding to purified anti-FGFR3 antibodies were determined using a real-time surface plasmon resonance biosensor technology using a Biacore 3000 or Biacore 4000 instrument. The CM5 Biacore sensor surface was derivatized by amine coupling with a monoclonal mouse anti-human Fc monoclonal antibody (REGN2567). All Biacore binding studies were performed in a buffer composed of 0.01M HEPES pH 7.4, 0.15 M NaCl, 3 mM EDTA, 0.05% v/v Surfactant P20 (HBS-EP running buffer). Different concentrations of monomeric proteins prepared in HBS-EP running buffer (ranging from 90 nM to 3.33 nM in 3-fold serial dilutions) or dimeric protein (hFGFR3b.mFc, REGN3153) prepared in HBS-EP running buffer (ranging from 30 to 10 nM in 3-fold serial dilution) were injected over the captured anti-FGFR3 antibodies at a flow rate of 30 μL/minute. Antibody-reagent association was monitored for 5 minutes while dissociation in HBS-EP running buffer was monitored for 10 minutes. At the end of each cycle, the anti-FGFR3 antibody capture surface was regenerated using a 10 sec injection of 20 mM phosphoric acid. All binding kinetics experiments were performed at 25° C.
# The specific SPR-Biacore sensorgrams were obtained by a double referencing procedure. The double referencing was performed by first subtracting the signal of each injection over a reference surface (anti-hFc) from the signal over the experimental surface (anti-hFc-captured anti-FGFR3 antibodies) thereby removing contributions from refractive index changes. In addition, running buffer injections were performed to allow subtraction of the signal changes resulting from the dissociation of captured antibodies from the coupled anti-hFc surface. Kinetic association (ka) and dissociation (kd) rate constants were determined by fitting the real-time sensorgrams to a 1:1 binding model using Scrubber v2.0c curve fitting software. Binding dissociation equilibrium constants (KD) and dissociative half-lives (t½) were calculated from the kinetic rate constants as: […]
# [2] = molecular target: T1, FGFR3 S249C dimerization in UMUC14 bladder cancer cells (Homo sapiens, UniProt P22607, S249C); experiment: Receptor dimerization assay, non-reducing SDS-PAGE; assay type: cell-based; conditions: antibody 3 hrs, FIG. 2
# T1 construct: bladder cancer cell line UMUC14 with endogenous FGFR3 S249C mutation; host or cells: UMUC14 bladder cancer cells
# T1 sequence (P22607 23-808 isoform P22607-2 S249C limits assumed): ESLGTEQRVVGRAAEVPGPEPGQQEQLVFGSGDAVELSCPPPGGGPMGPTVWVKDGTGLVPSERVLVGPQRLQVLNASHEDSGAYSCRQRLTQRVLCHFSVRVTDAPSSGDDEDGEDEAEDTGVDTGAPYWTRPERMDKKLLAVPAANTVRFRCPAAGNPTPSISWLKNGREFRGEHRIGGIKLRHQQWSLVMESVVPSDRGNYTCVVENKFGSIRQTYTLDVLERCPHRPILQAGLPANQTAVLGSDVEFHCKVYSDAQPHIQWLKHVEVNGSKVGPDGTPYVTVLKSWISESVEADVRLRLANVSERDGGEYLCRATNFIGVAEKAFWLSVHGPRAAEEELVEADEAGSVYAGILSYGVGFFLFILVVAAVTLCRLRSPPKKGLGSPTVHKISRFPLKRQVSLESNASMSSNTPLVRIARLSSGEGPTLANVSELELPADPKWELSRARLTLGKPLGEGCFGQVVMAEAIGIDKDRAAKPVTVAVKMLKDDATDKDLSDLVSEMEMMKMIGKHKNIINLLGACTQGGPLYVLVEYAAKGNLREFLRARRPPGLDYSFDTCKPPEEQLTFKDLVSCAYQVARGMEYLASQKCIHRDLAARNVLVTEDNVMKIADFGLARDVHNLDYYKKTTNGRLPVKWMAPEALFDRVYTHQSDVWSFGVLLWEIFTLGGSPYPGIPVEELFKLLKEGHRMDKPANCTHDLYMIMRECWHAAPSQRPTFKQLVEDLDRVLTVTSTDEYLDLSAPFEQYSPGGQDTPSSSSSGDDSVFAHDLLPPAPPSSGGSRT
# Experimental: Assays evaluating the following were performed: (1) Inhibition of FGFR3 S249C dimerization using bladder cancer cell line UMUC14 with endogenous FGFR3 S249C mutation; and (2) Inhibition of FGF1/heparin induced downstream signaling in BaF3 cell expressing wild-type FGFR3.
# For the receptor dimerization assay, UMUC14 bladder cancer cells were seeded in 6 well tissue culture plate (Corning) in complete medium (MEM medium with 10% FBS, 1% Non Essential Amino Acids, Pen/Strep) and cultured overnight at 37° C. 5% CO2. Cells were then serum starved overnight in starvation medium (MEM medium with 0.5% FBS, Pen/Strep) followed by antibody treatment for 3 hrs at indicated dose. Cells were washed with pre-chilled PBS and collected in lysis buffer containing protease inhibitors. Equal amount of cell lysate were analyzed by either reducing or non-reducing SDS-PAGE. Blots were blocked in 0.5% Tween 20 in Tris buffered saline (TBS) containing 5% non-fat dry milk followed by overnight incubation with anti-FGFR3 primary antibody (Santa Cruz). After washing 3× with TBST and incubation with secondary antibody, membranes were developed with SuperSignal West Pico or Femto substrate and luminescence images were captured with a C300 imager (Azure Biosystems).
# [3] = test system: UMUC14 xenograft (endogenous FGFR3 S249C); experiment: UMUC14 xenograft tumor growth inhibition; assay type: in vivo, SCID mice; conditions: 3 or 10 mg/kg intraperitoneally twice per week, FIG. 5
# Experimental: Tumor cells (5×10^6 UMUC14 in 50% Matrigel, 100 ul) were implanted subcutaneously into the right flank of 6 to 8-week-old female SCID mice (Jackson Laboratory). Once tumors were established (˜200 mm^3 in volume), mice were randomized into treatment groups (n=10 mice per group) and injected intraperitoneally twice per week with anti-FGFR3 antibodies or isotype control at 3 or 10 mg/kg. Tumor volume was expressed in mm^3 using the formula: V=0.5×a×b^2 where a and b were the long and short diameters of the tumor, respectively. All data were analyzed using GraphPad Prism and tumor sizes were graph as mean+SEM.
# [4] = test system: CD73 protein level in Fadu S249C tumors; experiment: CD73 expression in Fadu S249C tumors in vivo, Western blot; set-up: species or system SCID mice; conditions: FGFR3 mAb 15 mg/kg one intraperitoneal dose; AZD4547 25 mg/kg daily gavage; FIG. 11A-11B
# Experimental: To test the effect of anti-FGFR3 inhibitory antibody or tyrosine kinase inhibitor (AZD4547) on CD73 expression in vivo, tumor cells (5×10^6 UMUC14, 3×10^6 Fadu EV or S249C, in 50% Matrigel) were implanted subcutaneously into the right flank of 6 to 8-week-old female SCID mice (Jackson Laboratory). Once tumors were established (˜200 mm^3 in volume), mice were randomized into treatment groups (n=5-6 mice per group) and injected intraperitoneally once with anti-FGFR3 antibodies (15 mg/kg) or isotype control. Tyrosine kinase inhibitor AZD4547 (25 mg/kg) was administered once daily by oral gavage for 3 days. Tumors were collected 4 days post treatment initiation. Tumors were collected, snap frozen and lysed in RIPA buffer. Equal amount of tumor lysates were analyzed by SDS-PAGE and blotted with anti-CD73 and anti-FGFR3 antibodies as described above. Membranes were developed with SuperSignal West Pico or Femto substrate and luminescence images were captured with a C300 imager (Azure Biosystems). Intensity of each CD73 and actin band was quantitated using Image J (NIH), and the ratio of CD73/actin for each sample were graphed using Prism Graphpad.
molecule,measurement,setting,value
"H4H30063P: anti-FGFR3 antibody, hIgG4^P; HCVR/LCVR SEQ ID NOs: 2 & 10; HC/LC SEQ ID NOs: 18 & 20 (antibody) heavy: QVQLQESGPGLVKPSETLSLTCTVSGDSINSYFWSWIRQLPGKELEWIGHIYSSGSTRYNPSLQSRVTISIDTSKNQFSLKLSSVTAADTAVYYCARGASAVDYWGQGTLVTVSSASTKGPSVFPLAPCSRSTSESTAALGCLVKDYFPEPVTVSWNSGALTSGVHTFPAVLQSSGLYSLSSVVTVPSSSLGTKTYTCNVDHKPSNTKVDKRV[sequence of human IgG4 Fc with S228P (EU numbers) not given] light: EIVLTQSPGTLSLSPGERATLSCRTSQSISSGYLAWYQQKPGQAPRLLIYGASRRATGIPDRFSGSGSGTDFTLTISRLEPEDFVVYYCQQYGSSPYTFGQGTKLEIKRTVAAPSVFIFPPSDEQLKSGTASVVCLLNNFYPREAKVQWKVDNALQSGNSQESVTEQDSKDSTYSLSSTLTLSKADYEKHKVYACEVTHQGLSSPVTKSFNRGEC",ka,[1],153000 M⁻¹ s⁻¹
same,kd,[1],4.21e-05 s⁻¹
same,inhibition of FGFR3 S249C dimerization (in words),[2],dose dependent inhibition of FGFR3 S249C dimerization and stronger inhibition of receptor dimerization than comparator antibody REGN6331
same,tumor growth inhibition (in words),[3],stronger tumor growth inhibition than comparator antibody REGN6331
same,CD73 expression in Fadu S249C tumors in vivo (in words),[4],decreased expression of CD73 relative to mice treated with control
